Among the data in the supplement of paper PMC4723716 are viability index values, retold here.

Molecules are shown by their SMILES. ± gives the uncertainty stated by the source. In all, about 9,900 compounds were measured (“viability index relative to DMSO control”: median about 1, lowest 2% from about 0.85 on). This is one part of the list.

The subject of this experiment is Plasmodium falciparum NF54 stage V gametocytes. As to the kind of experiment: viability index relative to DMSO control (fraction); higher = less gametocyte killing. The following applies: 2.5 µM, incubation time: 72 h. In a few lines: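 Gametocytes (P. falciparum NF54, stage V) were treated with compound at 2.5 µM for 72 hr at 37°C in low oxygen, in serum-free medium at 0.75% gametocytemia and 1.25% hematocrit. Counts of 20–70 µm2 red particles, taken from one field per well after MitoTracker Red CMXRos with saponin, were divided by the plate mean of solvent-only wells. This ratio is the viability index.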

Where [1] appears, read: library set: Broad Institute DOS.

The compound `C[C@@H](NC(=O)[C@@H]1[C@@H](CO)[C@@H]2Cn3c(ccc(-c4ccccc4)c3=O)[C@@H]2N1C)c1ccccc1` registered a viability index under setting [1] of 1.05 ± 0.015.

Turning to `CO[C@H]1CN(C)C(=O)c2ccc(NC(=O)C3CCC3)cc2OC[C@@H](C)N(Cc2ccccn2)C[C@H]1C`, the viability index under setting [1] amounted to 1.05 ± 0.061.

`O=C(C[C@@H]1CC[C@@H](NC(=O)Nc2ccc(C(F)(F)F)cc2)[C@H](CO)O1)NCc1cccc(F)c1` gave a viability index under setting [1] of 0.962 ± 0.034.

On to `COc1ccc(S(=O)(=O)Nc2ccc3c(c2)[C@H]2C[C@H](CC(=O)N(C)C)O[C@H](CO)[C@H]2O3)cc1`, for which the viability index under setting [1] came out at 1.09 ± 0.048.

Regarding `COc1ccccc1NC(=O)N1CC(=O)N2[C@H](CO)[C@@H](c3ccc(-c4cccc(C)c4)cc3)[C@H]2C1`, the viability index under setting [1] was 1 ± 0.12.

`CCCN1C[C@H](C)[C@H](OC)CN(C)C(=O)c2cc(NC(=O)C3CCC3)ccc2OC[C@H]1C` came in with a viability index under setting [1] of 0.958 ± 0.043.

Take `CCCN1C[C@@H](C)[C@@H](OC)CN(C)C(=O)c2cc(NS(=O)(=O)c3ccccc3)ccc2OC[C@@H]1C`: the viability index under setting [1] was 1.07 ± 0.02.

For the compound `CS(=O)(=O)N1[C@@H](C#N)[C@H](c2ccc(C#Cc3cccc(F)c3)cc2)[C@@H]1CO`, the viability index under setting [1] came out at 1.11 ± 0.073.

For the compound `CC(C)C#Cc1ccc([C@@H]2[C@@H](CO)N3C(=O)CN(C(=O)c4ccc5c(c4)OCO5)C[C@H]23)cc1`, the viability index under setting [1] is 1.01 ± 0.048.

Under setting [1], `N#C[C@H]1[C@H](c2ccccc2-c2cccc(F)c2)[C@@H](CO)N1C(=O)CN1CCOCC1` displayed a viability index of 1.1 ± 0.098.

Take `COc1ccc(S(=O)(=O)N(C)C[C@@H]2Oc3c(NC(=O)c4nc5ccccc5s4)cccc3C(=O)N([C@@H](C)CO)C[C@H]2C)cc1`: the viability index under setting [1] was 0.979 ± 0.043.

The compound `COc1cccc(C#Cc2ccc([C@H]3[C@@H](CO)N(C(=O)C4CCCC4)[C@H]3C#N)cc2)c1` returned a viability index (library set: Broad Institute Blood Stage) of 0.882 ± 0.054.

As to `CO[C@H]1CN(C)C(=O)c2cc(NC(=O)Nc3cccc(Cl)c3)ccc2OC[C@H](C)N(C(=O)Nc2c(C)noc2C)C[C@H]1C`, the viability index under setting [1] amounted to 0.7814 ± 0.0047.

As to `O=C(NC1CCCC1)N[C@H]1C=C[C@H](CC(=O)N2CCOCC2)O[C@H]1CO`, under setting [1], the viability index amounted to 1.08 ± 0.023.

Take `C[C@@H]1CN([C@@H](C)CO)C(=O)CCCn2nncc2CO[C@@H]1CN(C)Cc1ccc2c(c1)OCCN2C`: under setting [1], the viability index was 1.04 ± 0.032.

In turn, `Cc1noc(C)c1NC(=O)Nc1ccc2c(c1)C(=O)N([C@H](C)CO)C[C@@H](C)[C@H](CN(C)Cc1ccc3c(c1)OCO3)OCCCC[C@@H](C)O2` showed a viability index under setting [1] of 1.1 ± 0.11.

Under setting [1], `COc1ccc(CN(C)C[C@@H]2OCc3cnnn3CCCC(=O)N([C@H](C)CO)C[C@H]2C)cc1` showed a viability index of 1 ± 0.052.

Take `C[C@@H]1CN([C@@H](C)CO)C(=O)CCCn2nncc2CO[C@H]1CN(C)C(=O)c1ccc2ccn(C)c2c1`: under setting [1], the viability index stood at 1.08 ± 0.017.

In turn, `COc1ccc([C@H]2C/C=C\C[C@@H](c3ccc4c(c3)OCO4)NC(=O)[C@@H](c3ccccc3)CC(=O)N2)c(OC)c1` had a viability index under setting [1] of 0.987 ± 0.082.

Under setting [1], `COc1ccc(NC(=O)N2CC[C@@]3(CC2)CN([C@@H](CO)c2[nH]c4cc(OC)ccc4c32)C(=O)c2cccnc2)cc1` returned a viability index of 1.003 ± 0.0024.

Compound `CN(C)CC(=O)N[C@@H]1C=C[C@H](CC(=O)NCc2ccc(Cl)cc2)O[C@@H]1CO` came in with a viability index under setting [1] of 1.17 ± 0.1.

The compound `CC(C)c1cn(CC[C@@H]2CC[C@H](NS(=O)(=O)c3ccc(F)cc3)[C@@H](CO)O2)nn1` showed a viability index under setting [1] of 1.16 ± 0.045.

As for `Cc1ccccc1S(=O)(=O)N1CCCCN2[C@H](CO)[C@@H](c3ccc(C#CCN(C)C)cc3)[C@H]2C1`, under setting [1], the viability index stood at 0.982 ± 0.04.

For `C/C=C/c1cnc2c(c1)C(=O)N([C@@H](C)CO)C[C@H](C)[C@H](CN(C)C(=O)Nc1cccc(OC)c1)O2`, the viability index under setting [1] amounted to 1.009 ± 0.0023.

The compound `C[C@H](CO)N1C[C@H](C)[C@@H](CN(C)Cc2ccc3c(c2)OCCN3C)OCc2cnnn2CCCC1=O` returned a viability index under setting [1] of 1.04 ± 0.025.

Consider `COCC(=O)N1[C@H](C#N)[C@H](c2ccc(C#Cc3ccccc3F)cc2)[C@@H]1CO`, for which, under setting [1], the viability index was found to be 1 ± 0.012.

Take `COCC(=O)Nc1ccc2c(c1)[C@H]1C[C@@H](CC(=O)N[C@H](C)c3ccccc3)O[C@H](CO)[C@H]1O2`: the viability index under setting [1] worked out at 1.02 ± 0.12.

As to `CCCN(C)C[C@H]1Oc2cc(/C=C/c3ccccc3)ccc2S(=O)(=O)N([C@@H](C)CO)C[C@H]1C`, the viability index under setting [1] turned out to be 1.19 ± 0.12.

`O=C(C1CCCCC1)N1CC2(C1)[C@@H](c1ccccc1)[C@H](CO)N2C(=O)c1cccnc1` returned a viability index under setting [1] of 1.04 ± 0.13.

`O=C(c1cnccn1)N1CC(=O)N2[C@H](C1)[C@@H](c1ccc(/C=C/c3ccccc3)cc1)[C@@H]2CO` displayed a viability index under setting [1] of 1.14 ± 0.016.

Under setting [1], `CO[C@@H]1CN(C)C(=O)c2cc(NC(=O)CC(F)(F)F)ccc2OC[C@@H](C)N(CC2CC2)C[C@@H]1C` came in with a viability index of 0.995 ± 0.057.

Take `O=C(Nc1ccc(C(F)(F)F)cc1)N1[C@@H]2CNC[C@H]1[C@@H]2c1ccc(-c2ccccc2F)cc1`: under setting [1], the viability index amounted to 1.07 ± 0.086.

With `COc1ccc(NC(=O)N2C[C@H](O)COC[C@@H]3O[C@H](CC(=O)N4CCCCC4)CC[C@H]32)cc1`, under setting [1], the viability index came to 1.07 ± 0.026.

Compound `O=C(c1cccc(F)c1)N1CCCCN2[C@H](CO)[C@@H](c3ccc(C#CC4(O)CCCC4)cc3)[C@@H]2C1` yielded a viability index under setting [1] of 1.04 ± 0.018.

Take `COc1ccc2c3c([nH]c2c1)[C@@H](CO)N(C[C@]31CCN(Cc2nccs2)CC1)S(=O)(=O)c1ccc(C)cc1`: the viability index under setting [1] was determined as 1.02 ± 0.062.

`O=C(c1ccccc1)N1CC(=O)N2[C@H](CO)[C@H](c3ccc(-c4ccccc4)cc3)[C@@H]2C1` gave a viability index under setting [1] of 1.02 ± 0.066.

For the compound `C[C@@H]1CN([C@H](C)CO)C(=O)c2cc(-c3ccncc3)cnc2O[C@@H]1CN(C)C(=O)CN1CCOCC1`, the viability index under setting [1] worked out at 0.935 ± 0.045.

In turn, `Cc1ccc(S(=O)(=O)NCC[C@@H]2CC[C@@H](NC(=O)c3cccnc3)[C@@H](CO)O2)cc1` returned a viability index under setting [1] of 1.23 ± 0.13.

Turning to `COc1ccccc1NC(=O)N1CC(=O)N2[C@H](C1)[C@H](c1ccc(C#CC(C)C)cc1)[C@@H]2CO`, the viability index under setting [1] came out at 1.01 ± 0.037.

In the case of `Cc1noc(C)c1NC(=O)N(C)C[C@@H]1OCCCC[C@@H](C)Oc2ccc(NC(=O)Nc3ccc(C(F)(F)F)cc3)cc2C(=O)N([C@H](C)CO)C[C@@H]1C`, the viability index under setting [1] was 1.06 ± 0.07.

Regarding `COc1ccc(CNC(=O)N(C)C[C@@H]2OCc3ccccc3-c3c(n(C)c4ccccc34)C(=O)N([C@@H](C)CO)C[C@H]2C)cc1`, under setting [1], the viability index came to 0.954 ± 0.062.

Compound `Cc1ccc(S(=O)(=O)N2C[C@H](O)COC[C@H]3O[C@@H](CC(=O)NCc4ccc5c(c4)OCO5)CC[C@@H]32)cc1` had a viability index under setting [1] of 1.04 ± 0.05.

Turning to `CN(C)CC(=O)N[C@@H]1CC[C@@H](CCNC(=O)C2CCC2)O[C@@H]1CO`, under setting [1], the viability index was 1.14 ± 0.15.

Turning to `CO[C@@H](CN(C)C(=O)c1cc(Cl)cc(Cl)c1)[C@H](C)CN(C(=O)Nc1ccc(F)cc1)[C@H](C)CO`, the viability index under setting [1] was determined as 1.04 ± 0.18.
